Results are given in words; binding and its absence hold for the method and conditions named. Binding seen in cells or lysates may run through a third protein. Some binding calls cover weakened binding; strength is not graded here.
T1: toll-like 4 receptor (TLR4), rat, endogenous in P rat VTA (rat (endogenous in P rat VTA)) (UniProt Q9QX05)
T1 sequence: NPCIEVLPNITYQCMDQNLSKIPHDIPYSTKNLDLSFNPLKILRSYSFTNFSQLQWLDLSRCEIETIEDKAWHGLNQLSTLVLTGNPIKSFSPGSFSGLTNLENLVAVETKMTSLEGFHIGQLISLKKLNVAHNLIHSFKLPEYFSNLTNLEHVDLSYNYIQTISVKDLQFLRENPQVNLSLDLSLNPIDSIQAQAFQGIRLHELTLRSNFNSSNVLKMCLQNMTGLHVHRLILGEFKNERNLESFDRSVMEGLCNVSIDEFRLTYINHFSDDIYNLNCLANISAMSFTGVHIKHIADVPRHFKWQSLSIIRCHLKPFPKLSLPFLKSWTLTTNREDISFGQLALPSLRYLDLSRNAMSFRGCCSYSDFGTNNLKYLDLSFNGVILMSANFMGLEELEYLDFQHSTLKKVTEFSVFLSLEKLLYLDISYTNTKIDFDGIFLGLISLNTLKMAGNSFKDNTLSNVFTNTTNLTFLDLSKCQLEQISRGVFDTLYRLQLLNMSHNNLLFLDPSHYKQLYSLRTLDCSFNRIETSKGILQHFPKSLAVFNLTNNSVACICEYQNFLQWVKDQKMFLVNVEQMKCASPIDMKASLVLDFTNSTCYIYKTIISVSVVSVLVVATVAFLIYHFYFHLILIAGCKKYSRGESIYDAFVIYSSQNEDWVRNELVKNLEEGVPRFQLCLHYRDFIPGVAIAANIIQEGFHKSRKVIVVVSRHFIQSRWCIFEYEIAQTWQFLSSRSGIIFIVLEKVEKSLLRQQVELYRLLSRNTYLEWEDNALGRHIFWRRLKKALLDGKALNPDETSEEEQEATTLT

Sequences of proteins named here, by UniProt entry; tags and fusion partners are left off. Residues count along the entry.
UniProt Q9QUK6, residues 26-835: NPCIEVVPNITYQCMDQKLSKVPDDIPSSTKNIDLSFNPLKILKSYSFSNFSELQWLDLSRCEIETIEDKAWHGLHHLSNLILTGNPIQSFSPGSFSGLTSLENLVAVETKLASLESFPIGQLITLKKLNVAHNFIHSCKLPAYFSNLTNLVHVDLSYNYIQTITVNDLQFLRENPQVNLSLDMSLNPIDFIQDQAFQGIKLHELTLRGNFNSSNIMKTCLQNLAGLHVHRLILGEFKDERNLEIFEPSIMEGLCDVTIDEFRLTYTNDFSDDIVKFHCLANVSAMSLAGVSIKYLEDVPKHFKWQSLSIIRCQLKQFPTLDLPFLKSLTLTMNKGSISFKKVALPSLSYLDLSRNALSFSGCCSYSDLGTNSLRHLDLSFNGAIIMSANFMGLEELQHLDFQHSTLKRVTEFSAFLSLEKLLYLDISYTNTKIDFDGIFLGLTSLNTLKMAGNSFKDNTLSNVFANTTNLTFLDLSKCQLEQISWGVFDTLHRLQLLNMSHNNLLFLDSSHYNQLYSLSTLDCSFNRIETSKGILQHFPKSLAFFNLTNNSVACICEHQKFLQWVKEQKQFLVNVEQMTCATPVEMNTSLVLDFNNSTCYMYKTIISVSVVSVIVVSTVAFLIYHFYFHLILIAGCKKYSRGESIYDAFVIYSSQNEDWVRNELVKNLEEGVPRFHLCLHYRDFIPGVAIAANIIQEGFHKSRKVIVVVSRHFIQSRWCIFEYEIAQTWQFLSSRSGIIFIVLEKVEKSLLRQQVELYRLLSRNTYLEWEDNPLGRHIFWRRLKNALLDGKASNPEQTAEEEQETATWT
UniProt Q9QUN7, residues 25-784: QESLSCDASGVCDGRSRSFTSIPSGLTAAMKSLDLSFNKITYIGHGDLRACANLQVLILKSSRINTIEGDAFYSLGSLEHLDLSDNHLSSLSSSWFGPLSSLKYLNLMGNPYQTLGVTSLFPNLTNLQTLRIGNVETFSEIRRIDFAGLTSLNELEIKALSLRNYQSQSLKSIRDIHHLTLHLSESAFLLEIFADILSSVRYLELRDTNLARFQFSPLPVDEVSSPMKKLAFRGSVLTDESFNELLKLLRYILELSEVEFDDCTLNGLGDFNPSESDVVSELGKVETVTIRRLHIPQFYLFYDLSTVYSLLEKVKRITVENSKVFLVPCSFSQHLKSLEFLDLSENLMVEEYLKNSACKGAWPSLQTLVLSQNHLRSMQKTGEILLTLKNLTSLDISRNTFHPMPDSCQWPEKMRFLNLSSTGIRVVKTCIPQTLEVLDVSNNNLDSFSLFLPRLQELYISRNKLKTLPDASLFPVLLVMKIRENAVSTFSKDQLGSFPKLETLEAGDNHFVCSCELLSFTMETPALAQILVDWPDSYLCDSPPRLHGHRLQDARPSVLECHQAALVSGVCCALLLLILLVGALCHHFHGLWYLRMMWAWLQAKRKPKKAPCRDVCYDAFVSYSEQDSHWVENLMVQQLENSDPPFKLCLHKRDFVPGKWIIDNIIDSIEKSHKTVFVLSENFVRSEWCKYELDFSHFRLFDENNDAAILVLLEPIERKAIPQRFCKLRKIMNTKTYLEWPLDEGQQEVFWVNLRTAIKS
UniProt P23576, residues 29-451: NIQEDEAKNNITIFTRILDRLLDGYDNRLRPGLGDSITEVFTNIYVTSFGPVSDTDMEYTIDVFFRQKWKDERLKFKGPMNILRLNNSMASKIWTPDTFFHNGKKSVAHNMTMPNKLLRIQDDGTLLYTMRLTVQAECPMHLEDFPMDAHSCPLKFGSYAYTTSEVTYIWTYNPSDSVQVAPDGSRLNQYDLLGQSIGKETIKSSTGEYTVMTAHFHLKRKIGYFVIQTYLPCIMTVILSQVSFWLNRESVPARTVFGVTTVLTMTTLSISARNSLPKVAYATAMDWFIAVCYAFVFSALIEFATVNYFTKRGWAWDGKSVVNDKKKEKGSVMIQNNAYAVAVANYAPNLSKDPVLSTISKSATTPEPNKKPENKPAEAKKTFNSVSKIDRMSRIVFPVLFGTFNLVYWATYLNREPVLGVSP
UniProt P63158: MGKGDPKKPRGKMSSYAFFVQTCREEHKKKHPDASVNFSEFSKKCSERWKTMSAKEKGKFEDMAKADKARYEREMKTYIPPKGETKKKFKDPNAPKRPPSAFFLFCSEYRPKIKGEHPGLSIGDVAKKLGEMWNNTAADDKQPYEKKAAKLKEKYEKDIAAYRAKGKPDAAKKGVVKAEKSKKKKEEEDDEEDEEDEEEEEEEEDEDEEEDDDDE
UniProt P63159: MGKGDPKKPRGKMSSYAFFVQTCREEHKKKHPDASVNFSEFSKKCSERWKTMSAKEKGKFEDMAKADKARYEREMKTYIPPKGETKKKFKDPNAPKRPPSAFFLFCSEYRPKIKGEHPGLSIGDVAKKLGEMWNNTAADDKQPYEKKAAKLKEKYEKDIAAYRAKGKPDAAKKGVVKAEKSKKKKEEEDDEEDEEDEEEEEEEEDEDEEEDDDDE
UniProt Q6Y1S1: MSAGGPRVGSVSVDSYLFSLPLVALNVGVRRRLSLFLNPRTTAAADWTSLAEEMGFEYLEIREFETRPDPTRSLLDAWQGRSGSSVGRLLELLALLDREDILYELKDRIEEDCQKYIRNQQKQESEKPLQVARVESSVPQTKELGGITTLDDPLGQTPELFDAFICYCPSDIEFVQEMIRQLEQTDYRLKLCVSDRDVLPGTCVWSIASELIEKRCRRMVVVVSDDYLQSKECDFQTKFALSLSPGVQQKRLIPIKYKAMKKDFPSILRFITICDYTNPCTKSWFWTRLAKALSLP

B1: MD-2 (myeloid differentiation factor 2), mouse, endogenous in RAW264.7 cells (protein, UniProt Q9JHF9 19-160)
chain: EKQQWFCNSSDAIISYSYCDHLKFPISISSEPCIRLRGTNGFVHVEFIPRGNLKYLYFNLFISVNSIELPKRKEVLCHGHDDDYSFCRALKGETVNTSIPFSFEGILFPKGHYRCVAEAIAGDTEEKLFCLNFTIIHRRDVN
B2: toll-like 4 receptor (TLR4), rat, endogenous in P rat VTA (receptor, UniProt Q9QX05 26-835)
chain: NPCIEVLPNITYQCMDQNLSKIPHDIPYSTKNLDLSFNPLKILRSYSFTNFSQLQWLDLSRCEIETIEDKAWHGLNQLSTLVLTGNPIKSFSPGSFSGLTNLENLVAVETKMTSLEGFHIGQLISLKKLNVAHNLIHSFKLPEYFSNLTNLEHVDLSYNYIQTISVKDLQFLRENPQVNLSLDLSLNPIDSIQAQAFQGIRLHELTLRSNFNSSNVLKMCLQNMTGLHVHRLILGEFKNERNLESFDRSVMEGLCNVSIDEFRLTYINHFSDDIYNLNCLANISAMSFTGVHIKHIADVPRHFKWQSLSIIRCHLKPFPKLSLPFLKSWTLTTNREDISFGQLALPSLRYLDLSRNAMSFRGCCSYSDFGTNNLKYLDLSFNGVILMSANFMGLEELEYLDFQHSTLKKVTEFSVFLSLEKLLYLDISYTNTKIDFDGIFLGLISLNTLKMAGNSFKDNTLSNVFTNTTNLTFLDLSKCQLEQISRGVFDTLYRLQLLNMSHNNLLFLDPSHYKQLYSLRTLDCSFNRIETSKGILQHFPKSLAVFNLTNNSVACICEYQNFLQWVKDQKMFLVNVEQMKCASPIDMKASLVLDFTNSTCYIYKTIISVSVVSVLVVATVAFLIYHFYFHLILIAGCKKYSRGESIYDAFVIYSSQNEDWVRNELVKNLEEGVPRFQLCLHYRDFIPGVAIAANIIQEGFHKSRKVIVVVSRHFIQSRWCIFEYEIAQTWQFLSSRSGIIFIVLEKVEKSLLRQQVELYRLLSRNTYLEWEDNALGRHIFWRRLKKALLDGKALNPDETSEEEQEATTLT

Legend:
[1] = biological target: toll-like 4 receptor (TLR4), mouse, endogenous in RAW264.7 cells (mouse (endogenous in RAW264.7)) (UniProt Q9QUK6); assay: co-IP; RAW264.7 cells treated 24 hrs with LPS (1 μg/ml) without or with 3α,5α-THP (1 μM) or pregnenolone (1 μM); cross-linked with membrane-permeable DSP (1 mM, 20 min on ice); extracted with Pierce IP Lysis Buffer; immunoprecipitated with antibody to TLR4 or TLR2 (normal IgG control); immunoblotted with MD-2 or HMGB1 antibody
[2] = biological target: TLR2, mouse, endogenous in RAW264.7 cells (mouse (endogenous in RAW264.7)) (UniProt Q9QUN7); assay: as above
[3] = biological target: T1, toll-like 4 receptor (TLR4), rat, endogenous in P rat VTA (rat (endogenous in P rat VTA)); assay: co-IP; P rat VTA micropunch extracts (CelLytic MT), rats naive or given vehicle or 3α,5α-THP (15 mg/kg, IP, 45 min); immunoprecipitated with antibody to TLR4 or α2 (normal IgG control); immunoblotted with α2, TLR4, MyD88 or HMGB1 antibodies
[4] = biological target: GABAA receptor α2 subunit, rat, endogenous in P rat VTA (rat (endogenous in P rat VTA)) (UniProt P23576); assay: as above

| Molecule | binding [1] | binding [2] | binding [3] | binding [4] |
| --- | --- | --- | --- | --- |
| high mobility group box-1 (HMGB1), mouse, endogenous in RAW264.7 cells (from UniProt P63158 1-215) | binds | binds |  |  |
| high mobility group box-1 (HMGB1), rat, endogenous in P rat VTA (from UniProt P63159 1-215) |  |  | binds |  |
| myeloid differentiation primary response 88 (MyD88), rat, endogenous in P rat VTA (from UniProt Q6Y1S1 1-296) |  |  | binds |  |
| B1 | binds | no binding |  |  |
| B2 |  |  |  | binds |
